From the supplement of paper PMC3334620
Over roughly 33,000 sequences, “E-score (-0.5 to 0.5)” has its median near -0.021; the highest 2% begin near 0.32. The list shows a part of the results.

Each sequence was assayed against T1, Zap1 (UniProt P47043) (assay: PBM E-score (8-mer binding enrichment) (E-score (-0.5 to 0.5)); higher = stronger / more preferred TF binding; most listed sequences are background and not binding sites). Details: protein concentration: 200 nM; construct: GST-full length.
T1 sequence: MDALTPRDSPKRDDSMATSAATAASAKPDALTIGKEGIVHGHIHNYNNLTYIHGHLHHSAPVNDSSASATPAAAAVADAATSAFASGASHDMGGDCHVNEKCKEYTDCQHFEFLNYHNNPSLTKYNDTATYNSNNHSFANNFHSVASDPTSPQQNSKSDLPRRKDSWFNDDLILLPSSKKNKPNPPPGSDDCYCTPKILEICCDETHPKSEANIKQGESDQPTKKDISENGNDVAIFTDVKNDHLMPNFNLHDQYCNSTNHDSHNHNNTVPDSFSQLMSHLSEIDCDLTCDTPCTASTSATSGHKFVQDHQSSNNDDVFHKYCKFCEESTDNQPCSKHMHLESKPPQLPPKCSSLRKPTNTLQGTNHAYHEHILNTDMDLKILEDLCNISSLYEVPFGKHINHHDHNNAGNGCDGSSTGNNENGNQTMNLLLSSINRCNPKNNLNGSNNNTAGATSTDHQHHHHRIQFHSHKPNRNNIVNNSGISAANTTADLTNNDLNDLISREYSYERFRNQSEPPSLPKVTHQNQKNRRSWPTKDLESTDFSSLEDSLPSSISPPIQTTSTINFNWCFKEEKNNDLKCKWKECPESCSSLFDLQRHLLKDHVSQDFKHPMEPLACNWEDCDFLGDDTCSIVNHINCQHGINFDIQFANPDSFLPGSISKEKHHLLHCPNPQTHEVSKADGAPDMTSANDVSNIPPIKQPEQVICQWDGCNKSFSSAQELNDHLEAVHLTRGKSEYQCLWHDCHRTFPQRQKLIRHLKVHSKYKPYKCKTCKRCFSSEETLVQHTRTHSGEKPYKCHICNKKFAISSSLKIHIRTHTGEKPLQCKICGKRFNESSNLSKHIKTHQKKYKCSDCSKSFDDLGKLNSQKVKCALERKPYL
Procedure, shortened: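 Each ungapped eight-base word and its reverse complement, pooled, received an E-score from the Universal PBM Analysis Suite. Underlying scans, normalised with masliner, recorded fluorescent anti-GST bound to GST-tagged yeast transcription factors. These were applied at about 100-200 nM to universal all-10-mer Agilent arrays double-stranded by primer extension.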

Row | Sequence | PBM E-score
1 | CTTAAGGC | 0.0797
2 | GCAAACCA | 0.132
3 | CGAGCACG | -0.349
4 | AGCGAGAT | -0.0192
5 | CCTACAGA | -0.0474
6 | ATCCTAGG | 0.09
7 | ACCCCGGT | 0.246
8 | CTGGAGCC | -0.23
9 | AATGGGGT | 0.31
10 | CAGATCTC | -0.155
11 | AGGCTCCC | -0.162
12 | AGCACACC | -0.126
13 | AACCAAAC | 0.198
14 | ACCAAAAA | 0.302
15 | ATTTAGGC | 0.0733
16 | GACGTCTC | -0.146
17 | GAGTGAAA | -0.0284
18 | ATCTAGGG | 0.033
19 | TCCAACCA | 0.0488
20 | ATCGTGCC | -0.204
21 | CTGAGCAA | -0.0279
22 | CCTTGCAC | 0.207
23 | GAACGTTC | -0.179
24 | AGCGATTA | 0.0404
25 | ATTGCCAC | -0.0476

Row | Sequence | PBM E-score
26 | GAGCGTAC | -0.162
27 | AGCCGAAG | -0.141
28 | CCGTGGCC | -0.0108
29 | ATCCATGA | -0.0518
30 | CAGGACCA | 0.0521
31 | CTGAAAAG | 0.0309
32 | CGTGAGGA | -0.201
33 | GGACCGCA | 0.138
34 | ACTCAACA | -0.033
35 | CTTACCGC | 0.154
36 | AGACGCAG | -0.244
37 | CTACCAAC | 0.0582
38 | AGTTACCC | 0.268
39 | GCCAATGA | -0.165
40 | GACGCTGC | -0.143
41 | ACTAAAGA | 0.00061
42 | CAGTTTTA | 0.124
43 | ACCCTAGA | 0.359
44 | CCAGGTAG | 0.118
45 | CAGTCCAC | -0.162
46 | ATCAGGAT | 0.00655
47 | CTTCAAAG | -0.0735
48 | ATGTACAG | -0.153
49 | CAATTCGA | -0.0319
50 | GCTTATCC | -0.229

Row | Sequence | PBM E-score
51 | CGACGTAG | -0.0869
52 | ATGTCCAG | -0.25
53 | AGAGATGC | -0.143
54 | ATCCGGAT | -0.0587
55 | ATCCGGTA | 0.122
56 | AGAATTTC | -0.148
57 | GGATCGAC | -0.0383
58 | ACCGTACG | -0.149
59 | ATTTGAAA | 0.12
60 | ACAACCCT | 0.443
61 | ACATCAAA | 0.0674
62 | CCAAAGGA | -0.106
63 | CACCGGCG | 0.078
64 | AACCTGAT | 0.177
65 | AATACTGT | 0.114
66 | CCAGCTTA | -0.133
67 | AATATAAG | 0.248
68 | GGCAGAGA | -0.111
69 | TGACGCAA | 0.00972
70 | AACTGCAT | -0.0988
71 | AATATGCT | -0.0515
72 | CGGCCATC | -0.0256
73 | ACGAATCA | 0.00515
74 | CAATCCTC | -0.16
75 | TAATGTGA | 0.0753

Row | Sequence | PBM E-score
76 | ATGGAGCC | -0.222
77 | AGTGGGGG | -0.362
78 | AGAAGTTG | -0.0206
79 | CAAGGCAC | -0.133
80 | GTAGTTCA | 0.0574
81 | CCCCGGGC | -0.133
82 | CTGTGGAC | -0.0654
83 | TATAAGCA | 0.028
84 | GTACCTGA | 0.233
85 | AAGCACTG | 0.0765
86 | AACTCCTA | 0.0957
87 | AGATATTG | 0.0866
88 | GAGGACTC | -0.266
89 | CCGTTTGC | 0.0589
90 | CAAATCGA | -0.013
91 | ATACGTTC | -0.294
92 | GGTGCTTA | 0.0113
93 | ACTCTATC | -0.22
94 | CAACAAAG | 0.285
95 | CCGCAATA | 0.259
96 | GACGCCGC | -0.11
97 | ACCCGGCA | 0.122
98 | ACAGTACG | 0.182
99 | GATACGAA | -0.0257
100 | ATGCGCAT | 0.0779

Row | Sequence | PBM E-score
101 | AATAGTAC | 0.0121
102 | CGATGAGC | -0.0656
103 | ATCGGGCG | -0.149
104 | CGTTTGAA | 0.0456
105 | CGTACGAG | -0.232
106 | GCGTGAAC | -0.0366
107 | CTATGAAG | -0.00627
108 | AAGGTGGC | 0.164
109 | AGTAAAAA | -0.0203
110 | GCTCTGTA | -0.0845
111 | AGTAGGGA | -0.245
112 | CTACGCTC | -0.174
113 | ATCTCCTC | -0.179
114 | ACCACCGT | 0.119
115 | AATGAACC | 0.171
116 | AATATTCC | 0.101
117 | ACGGGGGG | -0.41
118 | AGCCTCAC | -0.117
119 | CCGAATGA | -0.0117
120 | CGGCGCAC | -0.237
121 | ATTTTGCG | 0.00576
122 | CCGTCGAG | -0.0651
123 | GCGCCCCC | -0.233
124 | AAATAATT | 0.184
125 | AGAAGTCA | -0.0338

Row | Sequence | PBM E-score
126 | AGGCGCGC | -0.113
127 | CTCCTGCA | -0.284
128 | ATACTGTC | 0.00318
129 | AGAGAACG | 0.00415
130 | ATGTTTAA | 7e-05
131 | CGACAGAA | 0.0464
132 | GAGTCTAA | -0.0295
133 | ACAAAGGG | 0.0567
134 | CGGCTACG | -0.0443
135 | CATCCGAG | -0.0532
136 | GGCACACA | -0.229
137 | CGTGTTAA | 0.112
138 | GCTTTCAA | 0.0137
139 | CGTGCCAC | -0.136
140 | ATTGCTAG | -0.109
141 | ACAGGCTC | -0.254
142 | GGAGCTCA | -0.268
143 | CGGTTCAA | -0.0126
144 | GGGGTAAC | 0.37
145 | AGCGTGGA | -0.307
146 | ATCACAAA | 0.13
147 | GCCAGGGA | -0.174
148 | CACAGCCG | -0.0328
149 | CTCAGAAC | 0.133
150 | CCGTTAAA | 0.143

Row | Sequence | PBM E-score
151 | AGTCCTTA | -0.0359
152 | AACATCGA | -0.0109
153 | CAGGTCGG | 0.0464
154 | GCAGGAGA | -0.174
155 | ACCACTTA | 0.171
156 | CTATCCGC | -0.0609
157 | GACCCAGC | -0.127
158 | CTTATTGA | 0.0126
159 | ATACTACG | 0.0566
160 | CAGCCATC | -0.176
161 | AGCGGGCG | -0.118
162 | ACCCGTAT | 0.301
163 | GCGTCTAC | -0.203
164 | AGATTCTA | -0.0432
165 | CAAAGTAC | 0.204
166 | CACGAATA | 0.0447
167 | AATTAAAC | 0.148
168 | AGGCTTAG | -0.0547
169 | GCAAGGAA | 0.00893
170 | TAGTAATA | 0.0882
171 | AGATGGGC | -0.171
172 | ACTACCAT | 0.269
